Reference: the supplement of paper PMC9446081
In all, about 39,000 compounds went through this assay and about 220 (0.56%) showed activity. This is one part of the list.

Tested on: Escherichia coli K-12 BW25113
Experiment: relative growth (OD600 normalised to plate interquartile mean) (fraction); higher = less growth inhibition, active = 0.2 or less
Settings: 50 µM; LB; incubation time: overnight (16-24 h)
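Further: static incubation at 37 °C against the wild-type strain, values averaged over two biological replicates.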

| SMILES | relative growth |
| --- | --- |
| C[C@@H]1CCCCO[C@@H](CN(C)Cc2ccc(C(=O)Nc3ccccc3N)cc2)[C@@H](C)CN([C@H](C)CO)C(=O)c2cc(NS(=O)(=O)c3ccccc3)ccc2O1 | inactive: 0.998 |
| C[C@H](CO)N1C[C@H](C)[C@@H](CN(C)S(=O)(=O)c2cn(C)cn2)Oc2ccc(NS(=O)(=O)c3ccc(F)cc3)cc2CC1=O | inactive: 1.02 |
| CC(C)CC#Cc1ccc2c(c1)O[C@H](CN(C)C(=O)Cc1ccccn1)[C@H](C)CN([C@H](C)CO)S2(=O)=O | inactive: 0.963 |
| C[C@H]1CN([C@@H](C)CO)C(=O)Cc2cc(NC(=O)Cn3cnnn3)ccc2O[C@@H]1CN(C)Cc1ccc(C(=O)Nc2ccccc2N)cc1 | inactive: 1.02 |
| COc1ccc(NC(=O)Nc2ccc3c(c2)CC(=O)N([C@H](C)CO)C[C@@H](C)[C@@H](CN(C)Cc2ccc(C(F)(F)F)cc2)O3)cc1 | inactive: 0.998 |
| C[C@@H]1CN([C@@H](C)CO)C(=O)Cc2cc(NC(=O)Nc3cccc4ccccc34)ccc2O[C@H]1CN(C)Cc1ccc(Cl)c(Cl)c1 | inactive: 0.982 |
| CC(C)(N)c1ccc(F)cc1 | inactive: 1.01 |
| O=C(NO)c1cn(CC(=O)N2CCC3(CC2)C(=O)NCN3c2ccccc2)nn1 | inactive: 0.94 |
| CCS(=O)(=O)N1C[C@]2(C1)CN([C@@H](CO)c1[nH]c3cc(ccc3c12)OC)C(=O)Nc1c(noc1C)C | inactive: 1.04 |
| CC(=O)N[C@@H](Cc1ccccc1)C(=O)O | inactive: 1.01 |
| CO[C@@]12[C@H](COC(N)=O)C3=C(C(=O)C(C)=C(N)C3=O)N1C[C@@H]1N[C@@H]12 | inactive: 1.01 |
| Cc1noc(C)c1NC(=O)N(C)C[C@@H]1OCCCC[C@@H](C)Oc2ccc(NC(=O)c3ccccc3)cc2C(=O)N([C@H](C)CO)C[C@@H]1C | inactive: 1 |
| C[C@@H]1CN([C@H](C)CO)C(=O)CCCn2cc(nn2)CO[C@@H]1CN(C)C(=O)Nc1cccc(C(F)(F)F)c1 | inactive: 1.01 |
| C[C@H](CO)N1C[C@H](C)[C@@H](CN(C)S(C)(=O)=O)Oc2ccc(NS(=O)(=O)c3ccc(F)cc3)cc2C1=O | inactive: 0.987 |
| C[C@@H]1CCCCO[C@H](CN(C)C(=O)CCCN(C)C)[C@@H](C)CN([C@H](C)CO)C(=O)c2cc(NC(=O)Nc3ccc(C(F)(F)F)cc3)ccc2O1 | inactive: 1 |
| C[C@@H]1[C@H]2[C@H](O[C@@H]3O[C@H](CO)[C@@H](O)[C@H](O)[C@H]3O)OC=C(C(=O)O)[C@H]2C[C@@H]1O | inactive: 0.992 |
| Cc1ccc(S[C@]2(C(=O)NC(C)C)CC(=O)N(C3CCCCC3)[C@@H]2c2ccc(CO)cc2I)cc1 | inactive: 0.996 |
| COc1ccc(NC(=O)Nc2ccc3c(c2)CC(=O)N([C@@H](C)CO)C[C@H](C)[C@H](CN(C)C(=O)Nc2cccc4ccccc24)O3)cc1 | inactive: 0.994 |
| O=C(O)C=CC(=O)O.OCCOCCN1CCN(C2=Nc3ccccc3Sc3ccccc32)CC1 | inactive: 0.3 |
| Cc1ccc(S(=O)(=O)Nc2ccc3c(c2)CC(=O)N([C@H](C)CO)C[C@@H](C)[C@@H](CN(C)CC2CC2)O3)cc1 | inactive: 1.01 |
| C[C@@H]1CN([C@@H](C)CO)S(=O)(=O)c2ccc(C3=CCCCC3)cc2O[C@H]1CN(C)Cc1cncnc1 | inactive: 1.01 |

| SMILES | relative growth |
| --- | --- |
| CC(C)NC(=O)Nc1ccc2c(c1)C(=O)N([C@H](C)CO)C[C@@H](C)[C@H](CN(C)Cc1ccc(Cl)c(Cl)c1)OCCCC[C@H](C)O2 | inactive: 0.987 |
| OCC(O)C(O)CO (stereo unspecified) | inactive: 0.931 |
| O=C1CN(C(=O)c2ccc3c(c2)OCO3)CCN1 | inactive: 1 |
| O=C(C[C@H]1C[C@H]2c3cc(NC(=O)C4CCOCC4)ccc3O[C@H]2[C@H](CO)O1)NCc1ccc(Cl)cc1 | inactive: 1.04 |
| Cc1ccc(N2C[C@@H](N)CC2=O)cc1 | inactive: 0.971 |
| CCC(=O)N1CCC[C@](C)(C(=O)NS(=O)(=O)c2ccc(S(C)(=O)=O)cc2)C1 | inactive: 0.927 |
| C[C@@H]1CN([C@@H](C)CO)C(=O)c2cc(NS(=O)(=O)c3ccccc3)ccc2O[C@@H](C)CCCCO[C@@H]1CN(C)S(=O)(=O)c1cn(C)cn1 | inactive: 1.01 |
| C[C@@H]1CN([C@H](C)CO)C(=O)c2cc(NC(=O)Nc3ccc(C(F)(F)F)cc3)ccc2O[C@H]1CN(C)Cc1ccc(C(=O)O)cc1 | inactive: 0.952 |
| C[C@@H]1CN([C@@H](C)CO)C(=O)c2cc(NC(=O)Nc3ccc(C(F)(F)F)cc3)ccc2O[C@@H]1CN(C)Cc1ccc(C(=O)Nc2ccccc2N)cc1 | inactive: 1.02 |
| Nn1c(-c2ccncc2)n[nH]c1=S | inactive: 0.977 |
| C[C@@H]1CCCCO[C@@H](CN(C)Cc2ccc3c(c2)OCO3)[C@H](C)CN([C@@H](C)CO)C(=O)c2cc(NS(=O)(=O)c3ccc(Cl)cc3)ccc2O1 | inactive: 0.966 |
| C/C=C\C1=C(C(=O)O)N2C(=O)[C@H](NC(=O)[C@@H](N)c3ccc(O)cc3)[C@@H]2SC1 | inactive: 0.912 |
| CCOC(=O)[C@H]1CC(C)=NNC1=O | inactive: 1.01 |
| C[C@@H]1CN([C@@H](C)CO)C(=O)c2cc(NS(=O)(=O)c3ccccc3)ccc2O[C@@H](C)CCCCO[C@H]1CN(C)C(=O)c1ccccc1 | inactive: 1 |
| C[C@@H]1CN([C@@H](C)CO)C(=O)c2cc(C#CC3(O)CCCC3)cnc2O[C@H]1CN(C)C(=O)Cc1ccccc1 | inactive: 1 |
| Cc1noc(C)c1NC(=O)N(C)C[C@H]1Oc2c(NC(=O)C3CCOCC3)cccc2C(=O)N([C@@H](C)CO)C[C@H]1C | inactive: 0.999 |
| Cn1cc(C(=O)N2C[C@@H]3COC[C@@]3(CNS(C)(=O)=O)C2)cn1 | inactive: 1.02 |
| Cc1ccc(S(=O)(=O)NCC[C@H]2CC[C@@H](NS(=O)(=O)c3ccccc3Cl)[C@H](CO)O2)cc1 | inactive: 1 |
| OCCNC(=S)c1ccccc1 | inactive: 0.998 |
| Cc1ccc(S(=O)(=O)N(C)C[C@@H]2OCCCC[C@@H](C)Oc3ccc(NS(=O)(=O)c4ccc(Cl)cc4)cc3C(=O)N([C@@H](C)CO)C[C@H]2C)cc1 | inactive: 1.02 |
